Source: the supplement of paper PMC12632987
Over roughly 2,300 sequences, “median log2 fold change of GCK-ALFA target abundance (FLAG IP / Myc IP barcode read proportion)” has its median near 0.095; the lowest 2% begin near -0.47. Some of the results follow.

B1: LC3A_3_1791 (protein)
chain: AEELIEALLAELRAAGKSDETLEAVRAALEALAERGYEEALETFVEELRELLDAPDEILLWLAEEVLRLVEEEDLNEEELKERIEELARLARSEAEIIEL
B2: LC3A_141_359 (protein)
chain: ETKTETKTLTATTEEEAEKVAEEIKAAIAAFMKKTGAKAVKVTVTITAYNEKTGKTETKTIVDTVTAENLDLFEEGLLIELLLFFERGATKVTVTVTMES
B3: LC3A_3_1667 (protein)
chain: AEELLKATLKWLKAEGKSEEVLKAVKEAAEELIKKGYEEALKTFVELLKEMKDLSDELLLDFANEVLELVKTEDIDEETLTKKIKEIARVIKLETEIEEL
B4: LC3A_45_1929 (protein)
chain: MWRATVDLLVPKELAEEVYKLIKEKLEELQKKYGPELKVDWKTLEESYEASKNEEEVYFRVEIYHPDKQVALDAADELVDAIEEATGGKVASIISIEEVP
B5: LC3A_28_1291 (protein)
chain: SALEKSIEKALKEAKEAKKKGESKVIILEVPGDATEEEIEKAIKTLEEIAEILKDVKDQAIIVDVDGKVPQEYIDKIAEKAEEIEKKYPNVTVIIALDEE
B6: LC3A_28_1251 (protein)
chain: MEVEEQIKKAKEKVKEAVAKGEEALVTLTVTKDSTEEDIEKVIEAMEEIAELAKDLPALTIIVDVEKGVPQEHIDKLADKGEEIEKKYPNVTVIIALEEE
B7: LC3A_free_8_2518 (protein)
chain: MSEKFAQKAVEILDELEKKVVELLKKKGASELDILEAELLLGSIIAEVISLKDKSPEEILKAIEEGLKELVEELKEYKEEVKKLADEALKKIKEAKKELE
B8: LC3A_free_8_2529 (protein)
chain: NVQKAVEETTKMLDELEEEARALGEELGLDPLDLADLELEIGEAIIEVIELVDKPLEEIYEKTKESLKRIEALAAEIHPELEALVKKKSKEILEKLEKMK
B9: LC3A_28_1087 (protein)
chain: SELEEQLKKALEEAKKAKEEGKEVTLEITVPDTATEEDIELVKETLKEIAEIAKELPSLSVVINLTGKNAQAKATELSAHAEELEKEVPNLTVIIALDED
B10: LC3A_28_696 (protein)
chain: SAIDEQLERARREVEEAVAAGEDALVEFTVTGDATQEDIERLLAAVREMAELMAESGKLYVVIDLVGDVSQEHQDLLADGLDALEAEYPHVSVVIALDED
B11: LC3A_147_447 (protein)
chain: MKYEITVDALFKNDKELALEVAEKLREIAEKYGGEVEVKLEEEQETPTTTLYFLEVTITFEDEEKAKKAEKEISELIDETAEKYPDKFLGAIISFEEVEE
B12: LC3A_28_925 (protein)
chain: MTIEEIIEEVERKVEEGIAAGEDILIEIKIGSDYTVEEAEEIMERVREEVKRASEAGLKVYIVIDADNVSQEVLTAIAEKGDEIEKEYPNVKVIIALDEE
B13: LC3A_147_403 (protein)
chain: YIVEADIDIITKNAKEEVLAAFEEIVEELKEKGYEVELEVEVEKLDEDTWYINVKIKVETETKEEAEEVADYIEDKIDEIEEKLKDKILASLISIEIIEE
B14: LC3A_3_1564 (protein)
chain: MEKKREEALKYLKEKGASEEVLEAAKRAFDALIEKGYYEAAETFIEEAKKLADLPDEILLWFFTEVLDLVENEDLDEEETIERIKELARIARNEGEIEEL
B15: LC3A_3_1400 (protein)
chain: FEEIKKETIEFLKEAGASEEVIEKAKEVLEKLEERGYLEAAKTFKEELKKLKDASDELLLDFLEEVLRYLEENDDSEEEVVEKIKELARIALNDNEIEEL
B16: LC3A_3_1618 (protein)
chain: LEELEKEAIKALKEAGKSEETIELFKEVVDLLKEKGYEEAAKTLIELLIEGKDLPEEILRWFLEEVKELVETEDLSEEELKEKIKEIYKIAKSESEIIEL
B17: LC3A_28_1100 (protein)
chain: SALDENLKKALEEAKKAAAEGKEALIEITVGDDATEEDLKRLVETIEEIAEITKNLPALTVVINLEGEKAQEKADFLSKRADELEKKYPNLTIIIALDED
B18: LC3A_28_752 (protein)
chain: MDVAEEVARAIAEAKAAAAAGEEAVITLTVPAGATEEDVELFIAGMREIAEIAKDMKSMTIVVDIESGVPEEHINRLMDEGEEIEKKYPNVTVIFALDED
B19: LC3A_45_1925 (protein)
chain: MWEATLDVLVPRELAEKAYATAKELMAELEAEHGPDLRVDWATLDESYAASKDEEDVYLEIRIYHPDEQVALDAADRLEDELNAALGGKASSIISLKKLP
B20: LC3A_3_1629 (protein)
chain: MEEAVEELLEELRAAGHDEETLEAFREVAELLLERGFEEALKVLIEEMRKLKDAPSEILLDALQEVLEVLKTEDLNEEETIEKIKEIFTVARNESEIIEL
B21: LC3A_free_8_2479 (protein)
chain: MNQKLVDKATELLEELEEEVRKKAKELGLEELDILLLELEIGSVIQEIYDNSDKSPEEIYKTTKEGLKRIIEEAKKISEELAKLVKEKAEEILKELEKLL
B22: LC3A_free_46_2346 (protein)
chain: VLAEIEIDLLHEDEEVLKKAVEEIVKEAKKIAEKYNLEVEIKVEIEKLEDGSYFARIEIKLKGESKEDVEKAVNELINKIDEIAKKYDVAAIISYEIEEE
B23: LC3A_free_8_2458 (protein)
chain: NKDELVTTISNLYDEFEEKLEAKLKELGFSQEDINYISVLIGEAEMAVMETAEDDPSKTLEVAKEEFEEIIKELAKLSPELAKFAKELAEEVLKKIEEAL
B24: LC3A_28_1205 (protein)
chain: SKSKENAEKALEEAKKAAEEGEEKVIEVKVEGGITEEETKYVIEKIEKIAEIAAKNPKISIVIDISGGVAEEHKNYIIDKAEELEKKYPNVNIIIALEEE
B25: LC3A_28_1303 (protein)
chain: SALAAQFAAARAEVEAAAARGEPVVVTIDITAEQAETELDTILAQLRALGEVASRAPGATIIVDLDEDVDPENRTRILDTMEEIEERYPNVTVIAAIEDK
B26: LC3A_13_331 (protein)
chain: TITIEATTAEELREKSFAALEAHPGETINITVTVTNEEEAEAVAEVLGEIIRKAAEKGNSLNITIKGKEDLVNYVAVEAGAEIYEHIDKVDVTITTEVIP
B27: LC3A_28_891 (protein)
chain: MNPLDSAREALEKVKKAVAEGSTEPLVLEVDVPSDEEELEKLLELLEELAEEASKLKGVTIILDISEDVSQELRDKVIDHAEELEEKYPNVTVIIALPES
B28: LC3A_3_1781 (protein)
chain: AEARIAELLAALEAAGASPETIAAVRAAAEALRARGYEEALATFVEEMRRLLGLPDEIRLAFAQEVLRLIEENDLSEEELTEEIRRLARLARLEAEIEEL
B29: LC3A_23_624 (protein)
chain: KVKLTVEVDFIGTEEETEENIKKIKEKVEEIKKKYEDEILEYKLEIEREKLPDGRILVHVKITIITNGNEEKAKEIKDELVDFIDKNIPDGVISYEIEKL

What follows are binders tested against MAP1LC3A, Q9H492 (assay: median log2 fold change of GCK-ALFA target abundance (FLAG IP / Myc IP barcode read proportion) (log2 ratio); each designed protein is fused to an ALFA-tag nanobody in HEK293 cells to bring the named protein to FLAG-tagged glucokinase (GCK); Myc marks an untargeted standard; higher = target protein stabilised (more abundant)). Conditions: target protein: 3xFLAG-MCP-GCK-ALFA reporter; HEK293 landing pad (RPLP).
Summary of the method: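 Sequencing of reverse-transcribed, amplified circular RNA barcodes from anti-FLAG and anti-Myc immunoprecipitates provided the readout for an ALFA-nanobody-fused binder library recombined into HEK293 landing-pad cells. Those cells were induced with 2 μg mL^−1 doxycycline, transfected with a plasmid expressing a FLAG-tagged target and a Myc-tagged standard, and lysed after 48 h. Target abundance is the per-binder median log2 ratio of FLAG to Myc barcode read proportions. Only barcodes at a proportion of ≥10^−7 in both replicates and binders with ≥3 barcodes per replicate were kept, with a 10^−6 pseudocount added before the two replicates were pooled.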

| Binder | median log2 fold change |
| --- | --- |
| B1 | 0.0945 |
| B2 | 0.173 |
| B3 | 0.313 |
| B4 | -0.0313 |
| B5 | 0.115 |
| B6 | 0.124 |
| B7 | 0.169 |
| B8 | 0.0184 |
| B9 | 0.251 |
| B10 | -0.293 |
| B11 | -0.249 |
| B12 | -0.221 |
| B13 | -0.0503 |
| B14 | 0.139 |
| B15 | 0.298 |
| B16 | 0.248 |
| B17 | 0.29 |
| B18 | -0.0377 |
| B19 | -0.101 |
| B20 | 0.295 |
| B21 | 0.28 |
| B22 | -0.0805 |
| B23 | 0.179 |
| B24 | 0.106 |
| B25 | 0.266 |
| B26 | 0.289 |
| B27 | -0.154 |
| B28 | 0.24 |
| B29 | -0.0862 |
